Reference: PubChem BioAssay AID1508623 (National Center for Advancing Translational Sciences (NCATS), 2021)
Screen size: about 48,000 compounds; about 450 (0.94%) were called active. Roughly 19% stayed inconclusive and do not appear here. Calls come from the whole dose curve; as a rule, active = well fitted inhibition curve with a large enough effect; inconclusive = small, poorly fitted or top-dose-only effect; inactive = no such curve, though single readings can be large or run the other way. The list shows a part of the results.

Assay: Primary qHTS for Identification of Small Molecule Inhibitors of Huntingtin Promoter Activity; note: nearly all actives have a fitted effect of over 50% in size
Conditions: HEK293 HTT promoter firefly luciferase reporter (activity 0% = vehicle and -100% = no light), 24 h; series mostly up to 57.5 µM; activity change, negative = inhibition: at the top concentration
Summary of the method: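 HEK293 Fluc reporter, 2,500 cells/well, 24 h pre-culture; cpds up to 57.5 uM final, 24 h 37 degrees C; Dual-Glo, 10 min RT; normalized vehicle = 0%, zero RLU = -100%.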

Activity change, negative = inhibition, inactive:
COc1ccc(NC(=O)CSc2ccc(-c3cccs3)nn2)cc1 9.5%
COc1ccc(/C=C/C(=O)N2CCC(c3nc4ccccc4o3)CC2)cc1 -13.3%
CCOc1ccc(N(CC)S(=O)(=O)N2CCCC(C(=O)Nc3ccc(NC(C)=O)cc3)C2)cc1 (stereo unspecified) -9.48%
CCS(=O)(=O)c1nc(S(=O)(=O)c2ccc(C)cc2)c(NCc2ccc(Cl)cc2)s1 -30.5%
CCOC(=O)c1ccc(NS(=O)(=O)c2cn(C)c(C)n2)cc1 -13.2%
CN(C)C(=O)COC(=O)Cc1ccc(OC(=O)c2ccc(N=C(N)N)cc2)cc1 3.82%
COc1cccc(C(=O)Nc2cc(-c3ccccc3)nn2-c2ccccc2)c1 -20%
O=C(COc1ccc2oc3c(c2c1)CCCC3)Nc1ccc(Cl)cc1 -22.2%
CC(=O)Oc1ccc(C(c2ccc(OC(C)=O)cc2)c2ccccn2)cc1 3%
CCOc1ccc(NC(=O)Cn2cc(C(=O)c3ccc(OCC)cc3)c(=O)c3cc4c(cc32)OCCO4)cc1 6.09%
Cc1ccc(CCNC(=O)c2cc3cc4cc(C)ccc4nc3s2)cc1 33.4%
COc1ccc(NC(=O)N(C(C)C)C2CCN(C(C)=O)CC2)c(OC)c1 -21.1%
COc1cccc(NC(=O)CN2C(=O)COc3ccc(S(=O)(=O)N4CCCCCC4)cc32)c1 -18.1%
CCc1ccc(NC(=O)CC2C(=O)N(c3ccc(C)cc3)C(=O)N2CCc2ccncc2)cc1 (stereo unspecified) -11.1%
Nc1c(C(=O)NCc2ccc3c(c2)OCO3)nnn1CC(=O)Nc1ccc(Br)cc1 -9.73%
Cc1cccc(C)c1OCC(=O)N1CCC(c2nc3ccccc3o2)CC1 -11.1%
Cc1cc(SCC(=O)Nc2ccc(Cl)cc2)nc2ccccc12 -5.57%
Cc1cccc(NC(=O)CSc2cn(CC(=O)N3CCCC3)c3ccccc23)c1C -17.1%
CCc1ccc(-c2cc(C)no2)cc1S(=O)(=O)Nc1ccc(Cl)cn1 -22.3%
COc1cc(OC)c(NC(=O)c2cc3c(s2)-c2ccc(Cl)cc2SC3)cc1Cl -22.1%
Cc1cccc(N2CCN(C(=O)C3CCN(Cc4nc(-c5ccc(Cl)cc5)oc4C)CC3)CC2)c1C -8.05%
Cc1cc(NC(=O)C2CCC(CNS(=O)(=O)c3ccc(Br)s3)CC2)ccc1Br (stereo unspecified) -2.79%
CCc1nn2c(-c3ccco3)ccnc2c1-c1ccccc1 8.89%
N=c1nc(N2CCCCC2)cc(N)n1O
CCOC(=O)c1cc(S(=O)(=O)Nc2ccc(OC(F)(F)F)cc2)[nH]n1 -7.05%
COc1ccc(NC(=O)CSc2nc(-c3ccc(OC)cc3)cc(=O)[nH]2)cc1 9.16%
O=C(NCc1ccccc1Cl)c1cnc(N2CCCCC2)c2ccccc12 -12.2%
COc1ccc(-c2cc3ccc(O)c(CN4CCN(CCO)CC4)c3oc2=O)cc1OC -7.87%
Cc1cccn2c(Nc3ccc4c(c3)OCCO4)c(-c3ccc(Br)o3)nc12 18.2%
COc1cc(-c2nc3n(n2)C(c2ccc(F)cc2)C(C(N)=O)=C(C)N3)cc(OC)c1OC (stereo unspecified) 2.27%
COc1ccc(OC)c(CNC(=O)c2cc(-c3ccc(Cl)s3)nc3ccccc23)c1 -12.8%
Cc1ccc(-n2nc(C(=O)NCCc3cccc(C)c3)c3c4ccccc4n(C)c3c2=O)cc1 -5.2%
COc1ccccc1NC(=O)c1oc2ccccc2c1NC(=O)c1ccc(S(=O)(=O)N(C)C)cc1 1.06%
Cc1ccc(CNC(=O)c2cc(C3CC3)nc3c2c(C)nn3-c2cccc(Cl)c2C)cc1 2.84%
CCCN(CCC)C(=O)c1c[nH]c2ccc(S(=O)(=O)Nc3cc(C)cc(C)c3)cc2c1=O -3.79%
Cc1c(Cl)cccc1NC(=O)c1cc(-c2cccs2)on1 -15.8% [at 11.5 µM]
CCOC(=O)c1c(C)[nH]c(C)c1S(=O)(=O)N(C)CC(=O)Nc1cccc(Cl)c1C -19.7%
COc1ccc(CN2CCCN(CC(=O)Nc3ccc(Br)cc3F)S2(=O)=O)cc1 1.72%
Cc1c(C(=O)N2CCC(C)CC2)c(S(=O)(=O)Nc2cccc(C#N)c2)c(C)n1C -21.6%
CCOc1ccc(NC(=O)CC2Nc3cccc4cccc(c34)NC2=O)cc1 (stereo unspecified) -7.08%
COc1ccc(C(=O)N2CCCCC2CCN2CCOCC2)cc1 (stereo unspecified) -7.37%
CC1=C(c2ccc(C)c(C)c2)S(=O)(=O)N=C1N1CCN(c2cccc(C)c2)C(C)C1 (stereo unspecified) -22.5%
CCOC(=O)c1ccc(NC(=O)C2=C(C)C(=O)OC23CCCCCC3)cc1 -14.1%
CC(C)Sc1ncc(Cl)c(C(=O)Nc2nc3ccc(S(C)(=O)=O)cc3s2)n1 -1.91%
O=C(c1ccccc1Cl)N1CCCC(c2nc3c(nnn3Cc3ccc(F)cc3F)c(=O)[nH]2)C1 (stereo unspecified) -27.9%
COc1ccc(NC(=O)Cn2c(=O)n(Cc3nc(C)no3)c(=O)c3cc4c(cc32)OCO4)cc1 -11.2%
COc1ccc(NC(=O)c2cc3c(=O)n(Cc4cccs4)ccc3nc2C)c(OC)c1 -6.32%
NC1[C@H]2CN(c3nc4c(cc3F)c(=O)c(C(=O)O)cn4-c3ccc(F)cc3F)C[C@@H]12 (stereo partly specified) 68.8%
Cc1ccc(-c2nc3cc(Cl)ccc3o2)cc1NC(=O)c1cc2ccccc2o1 14%
Cc1c(C(=O)N(C)C)sc2c1c(=O)n(-c1ccccc1C(F)(F)F)c(=O)n2Cc1ccccc1C#N -0.166%
CC(C)Cc1nn2c(=O)cc(COC(=O)c3cccc(NC(=O)c4cccs4)c3)nc2s1 -11.4%
COc1ccc(-c2nsc(NC(=O)COc3ccccc3OC)n2)cc1 -6.06%
COc1ccccc1CNC(=O)CCCn1c(=O)c2ccccc2n(CC(=O)Nc2ccc(C)cc2Cl)c1=O -7.18%
Cn1c(=O)n(Cc2ccccc2Cl)c(=O)c2c1nc1n2CCN1c1ccccc1 -0.361%
COc1cccc(CNC(=O)CSc2cc(C)[nH]c(=O)n2)c1 -1.56%
Cc1c(Cl)cccc1NC(=O)CSc1nc(=O)n(Cc2ccncc2)c2c1CCC2 -5.61%
Cc1ccc(C(=O)COC(=O)CCCC(=O)Nc2cc(C(F)(F)F)ccc2Cl)cc1C -10.2%
COc1ccc(C(=O)NCc2ccc3c(c2)CCN3C(C)=O)cc1OC -23.6%
CCn1ccc2cc(S(=O)(=O)N3CCCN(C(=O)Nc4ccc(C)cc4Cl)CC3)ccc21 -23%
Cc1cc(Nc2ccccc2F)n2nc(Cc3ccc(Cl)cc3)nc2n1 -18%
COc1cc2c(cc1OC)n(CC(=O)Nc1ccc(C)cc1C)c(=O)n1nc(-c3ccccc3)nc21 -12%
